Test results from article PMC4900556 (2016).
Several values for one entry are separate records, joined by “and”; a condition that tells them apart may be missing. Equal entries are not always repeated.

Target: T1, Drebrin 1-300 (Homo sapiens, UniProt Q16643)
T1 chain: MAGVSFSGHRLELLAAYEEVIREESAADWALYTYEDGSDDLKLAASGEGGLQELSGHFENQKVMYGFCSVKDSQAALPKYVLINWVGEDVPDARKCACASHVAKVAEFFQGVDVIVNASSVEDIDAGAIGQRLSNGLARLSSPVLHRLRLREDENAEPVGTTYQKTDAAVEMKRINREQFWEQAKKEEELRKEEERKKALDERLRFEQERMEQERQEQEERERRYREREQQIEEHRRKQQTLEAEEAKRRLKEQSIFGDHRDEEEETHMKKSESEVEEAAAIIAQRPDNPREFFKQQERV
Test: NMR

B1: Connexin43 CTD (protein)
chain: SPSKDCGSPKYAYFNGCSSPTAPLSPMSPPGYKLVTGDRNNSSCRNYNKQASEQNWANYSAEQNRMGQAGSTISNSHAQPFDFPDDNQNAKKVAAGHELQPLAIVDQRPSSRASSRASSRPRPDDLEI
Kd: 279 µM and 344 µM and 283 µM
